These results are taken from the RNAGym collection of RNA variant scans (doi:10.7554/elife.90254).

The chains are these.
B1: LINE1-mini (parent)
chain: GGCAGAGCUCAACACAGCGUGGCAAAGUGGCUGUGGCUAGACUGCC

The source gives no read counts; variants with many changes may rest on few reads.

This series covers variants of B1. As to the kind of experiment: self-cleavage, relative activity (ratio to wild type); higher = more cleavage; in vitro, sequencing; the parent is a self-cleaving ribozyme.
Regarding GGCAGAGCUCAACAAAGCGUCCCAAAGUGGCUGUGGCGAGAAUGCC, the self-cleavage came to 0.02.

In the case of GGCAGAGCUCAACAGAGCGUGGCAACGUGGCAGUAGCUAGACUGCC, the self-cleavage stood at 0.05.

GGCAGAGCUCAACAAAGCUUGGCAAAGUGGCUGUGACUAGACAGCC: the self-cleavage was found to be 0.04.

Consider GGCAGAGCUCAACAGAGCGUGGCACAGUUGCUGUGGCUAGACUGCC, for which the self-cleavage worked out at 0.12.

On to GGCAGAGCUCAACAAAGCGUGGAAAAGUGGCUGUGGCUAAACUGCC, for which the self-cleavage was 0.07.

Consider GGCAGAGCUCAACAAAUCGUGGCAAAGUGGCUGUGGCUAGUUUGCC, for which the self-cleavage was 0.08.

As for GGCAGAGCUCAACAAAGGGUGGCAAAGUGGCUUUGGCUAGACUGCC, the self-cleavage was determined as 0.04.

GGCAGAGCUCAACAAAGCGUGGUAAAGUGGCUGUUGCUAGACUGCC: the self-cleavage turned out to be 0.11.

GGCAGAGCUCAACAAAGCGUGGAAAAGUGGCUGUGGCUUGACUGCC: the self-cleavage was determined as 0.04.

Consider GGCAGAGCUCAACAAAGCGUGGCAAAGUGUCUGUGUCUAGACUGCC, for which the self-cleavage was 0.15.

For GGCAGAGCUCAACAAAGCGUGGCAAAGUGCCUGAGGCGAGACUGCC, the self-cleavage came to 0.

As to GGCAGAGCUCAACAAAGCGUGGCAAAGUGGAUCUGGCUAGACUGCC, the self-cleavage came to 0.04.

Take GGCAGAGCUCAACAAAGCCUGGCAACGUGGCUGUGGCUAGACUGCC: the self-cleavage was determined as 0.19.

As for GGCAGAGCUCAACAGCGCGUGGCAAAGUGGCUGUGGUUAGACUGCC, the self-cleavage was 0.02.

For GGCAGAGCUCAACAGGGCGUGGCAAAGUAGCUGUGGCUAGACUGCC, the self-cleavage was 0.02.

For GGCAGAGCUCAACAAAGCGUGGCAAAGUGGCUGUGGGUAGAGUGCC, the self-cleavage is 0.02.

Regarding GGCAGAGCUCAACAAAGCGUGUUAAAGUGGCUGUGCCUAGAAUGCC, the self-cleavage is 0.07.

For the variant GGCAGAGCUCAACAAAGCGUGGCAAAGUGGAUGUGGGUUGACUGCC, the self-cleavage was found to be 0.03.

Regarding GGCAGAGCUCAACAAAGCGUGGCAAAGUAGCUGUAGCUAGACUGUC, the self-cleavage stood at 0.02.

Consider GGCAGAGCUCAACAAAGCGUGACAAAGGGGCUGUGGCUAGACUGCC, for which the self-cleavage was determined as 0.04.

Consider GGCAGAGCUCAACAAAGCGUGACAAAGCGGCUGUGGCUAGACUGCC, for which the self-cleavage is 0.08.

As for GGCAGAGCUCAACAAAGCGUGGGAAUGUGGCUGUGGCUAGCCUCCC, the self-cleavage was found to be 0.03.

Regarding GGCAGAGCUCAACAAAGCUUGGCAAAGUGGCUGUGGCUAUUCCGCC, the self-cleavage amounted to 0.04.

Regarding GGCAGAGCUCAACAAAUCAUGGUAAAGUGGCUGUGACGAGACUGCC, the self-cleavage was 0.02.

Consider GGCAGAGCUCAACAAAUCGUGGCAAAGUGGCUGUGGCUAUACUGCC, for which the self-cleavage came to 0.14.

Take GGCAGAGCUCAACAAAGCGUGGCAAAGUGCCUGAGGCUAGACUGCC: the self-cleavage is 0.06.

In the case of GGCAGAGCUCAACAAAGCGUGGCAAAGUGACGAUGGCUAGAAUGCC, the self-cleavage came to 0.05.

GGCAGAGCUCAACAGAGCGUGGCAAUGUGGCGGUGGCUAGACUGUC: the self-cleavage was found to be 0.

Regarding GGCAGAGCUCAACAAAGCGUUGCUAAGUGGCUGUGGCUAGACUGCC, the self-cleavage came out at 0.01.

With GGCAGAGCUCAACAGGGCGUGGUAAAGUGGCUGUGGCUCUACUGCC, the self-cleavage stood at 0.01.

GGCAGAGCUCAACAAAGUGUGCCAAAGUGGCUGUGGCUAGACUGCC: the self-cleavage was determined as 0.04.

With GGCAGAGCUCAACAAAGCGGGGCAACGUGGCUGUGACUAGACUGCC, the self-cleavage stood at 0.01.

On to GGCAGAGCUCAACAAAGCGUGGCAAAGUGUCUGUGGAUAGACUUCC, for which the self-cleavage came out at 0.02.

In the case of GGCAGAGCUCAACAAAGCGGGGCAAAGUGGCUGUGGCUAGACUGCG, the self-cleavage is 0.05.

Turning to GGCAGAGCUCAACAAAGCGUGGCAAAGUGCAUGUGGCUAGACUGCC, the self-cleavage came to 0.02.

For the variant GGCAGAGCUCAACAAAGCGUUGUAAAUUGGCUGUGGCUAGACUGCC, the self-cleavage was determined as 0.13.

Take GGCAGAGCUCAACAGAGCGUGGCAACGUGGCUGUGGCAAGACUGCC: the self-cleavage came out at 0.05.

As for GGCAGAGCUCAACAAAGCGUGGCAAAGUGGCUGUGGCUACGCUGCC, the self-cleavage was 0.08.

Take GGCAGAGCUCAACAGAGCGUGGCAAAGUGGCUGUGGCUGGACUGCA: the self-cleavage stood at 0.02.

Consider GGCAGAGCUCAACAAAGCGUGGCAAAGUGGCUCUGGCUAGGCUGGC, for which the self-cleavage was determined as 0.02.

On to GGCAGAGCUCAACAAAGUGUGGCAAAGUGGCUGUGGCUAGACUGCU, for which the self-cleavage is 0.14.

For the variant GGCAGAGCUCAACAAAGCGUGGCAAAGGGGCUGUGGCUACACUGCC, the self-cleavage stood at 0.02.

As to GGCAGAGCUCAACAAAGUGUGGCAAAGUGGCGGUGGCUAGACUCCC, the self-cleavage worked out at 0.02.

Take GGCAGAGCUCAACAAAGCAUGGCAAUGUGGCUGAGGCUAGACUGCC: the self-cleavage was determined as 0.03.

Regarding GGCAGAGCUCAACAAAGCUUGGCAAAUUUGCUGUGGCUAGACUGCC, the self-cleavage is 0.03.

In the case of GGCAGAGCUCAACAAAGCGUGGCAAUGUGGCUGUGGCAAGACUGCC, the self-cleavage amounted to 0.07.

For the variant GGCAGAGCUCAACAAAGCGUGGAAAAGUGGCUGUGUCUAGACUGCC, the self-cleavage stood at 0.04.

As for GGCAGAGCUCAACAGUGAGUGGCAAAGUGGAUGUGGCGAGACUGCC, the self-cleavage amounted to 0.04.

For GGCAGAGCUCAACAGAGCGUGGCUAAGUGGCUGUGGCUCGACUGCC, the self-cleavage amounted to 0.03.

Turning to GGCAGAGCUCAACAAAUCGUGGCAAAGUGGCUGUGGUUAGAUCGGC, the self-cleavage was 0.03.

On to GGCAGAGCUCAACAAAGAGUGUCAAAGUCGCUGUGGCUAGACUGCC, for which the self-cleavage was determined as 0.04.

As for GGCAGAGCUCAACAAAACGUGGCAAAGUGGCUGUGGCUAGAAUGCC, the self-cleavage came out at 0.04.

With GGCAGAGCUCAACAAAACGUGGCAAAGUGGCUGUGGCUAGAUUGCC, the self-cleavage was 0.02.

In the case of GGCAGAGCUCAACAGUGAUUGGCAAAGUGGCUGCGGUUAGACAGCC, the self-cleavage was found to be 0.01.

GGCAGAGCUCAACAAAGCGUGGCAAAGUGGCUGUGGCUAUACUUCC: the self-cleavage came out at 0.02.

For the variant GGCAGAGCUCAACAAAGCGUGGCAAAGUGGCUGUGGCUAGAUUGGA, the self-cleavage was found to be 0.05.
